# In patent EP0708091A1, “Indoloylguanidine derivatives” (SUMITOMO PHARMACEUTICALS COMPANY, LIMITED, priority 1994, dated 1996):
# Structures can show the parent of a compound that is named as a salt. At least one structure is not confirmed: it was looked up by name or label, or the drawing left a doubt.
# Biological target: T1, Na⁺/H⁺ exchanger (Rattus norvegicus, UniProt P26431)
# T1 construct: using the vascular smooth muscle cells isolated from the rat thoracic aorta; endogenous in cells; host or cells: primary vascular smooth muscle cells isolated from rat thoracic aorta
# Test: Inhibition of Na+/H+ exchanger activity in vitro (change in cell viability during acid loading)
# Format: cell-based
# Conditions: minimum effective concentration (MEC); change in cell viability during acid loading; vascular smooth muscle cells isolated from the rat thoracic aorta
# Protocol: Inhibition of Na+/H+ exchanger activity in vitro Method:
# The experiment was performed by modifying the method of Mungre et al. described in Exp. Cell Res., 193, 236 (1991). That is, inhibition of the Na⁺/H⁺ exchanger activity was evaluated by the change in cell viability during acid loading, using the vascular smooth muscle cells isolated from the rat thoracic aorta.
# The compounds of the present invention shown in Examples were evaluated by the minimum effective concentration (MEC) for the inhibition of the Na⁺/H⁺ exchanger activity.
# T1 sequence (P26431 whole entry): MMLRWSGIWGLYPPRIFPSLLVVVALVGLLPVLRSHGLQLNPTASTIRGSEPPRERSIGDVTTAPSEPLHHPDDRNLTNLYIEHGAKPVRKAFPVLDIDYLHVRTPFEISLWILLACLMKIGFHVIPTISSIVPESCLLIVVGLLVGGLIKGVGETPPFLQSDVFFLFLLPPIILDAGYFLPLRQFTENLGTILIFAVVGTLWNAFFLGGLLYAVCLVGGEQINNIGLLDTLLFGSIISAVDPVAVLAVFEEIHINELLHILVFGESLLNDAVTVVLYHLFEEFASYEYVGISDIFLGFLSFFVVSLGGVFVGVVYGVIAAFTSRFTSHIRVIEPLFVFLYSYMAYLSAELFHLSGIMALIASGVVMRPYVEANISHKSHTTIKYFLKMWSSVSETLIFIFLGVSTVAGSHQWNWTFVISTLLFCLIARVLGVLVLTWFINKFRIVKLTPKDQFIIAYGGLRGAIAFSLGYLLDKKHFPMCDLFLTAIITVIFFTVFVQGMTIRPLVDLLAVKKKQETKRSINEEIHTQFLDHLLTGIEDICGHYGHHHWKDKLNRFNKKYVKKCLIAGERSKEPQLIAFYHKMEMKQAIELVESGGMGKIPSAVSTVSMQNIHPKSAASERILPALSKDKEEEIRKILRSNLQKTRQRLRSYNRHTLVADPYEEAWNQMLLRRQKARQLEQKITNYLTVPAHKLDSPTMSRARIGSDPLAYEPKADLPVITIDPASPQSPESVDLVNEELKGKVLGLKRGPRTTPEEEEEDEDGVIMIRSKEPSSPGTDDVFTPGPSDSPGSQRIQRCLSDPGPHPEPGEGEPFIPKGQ
row,Compound,Inhibition of Na^+/H^+ Exchanger MEC [µM]
1,"Cn1c(C(=O)N=C(N)N)cc2c(S(C)(=O)=O)cccc21 [Example 70, 1-Methyl-4-methylsulfonyl-2-indoloylguanidine hydrochloride]",3.0
2,"CC(C)n1ccc2c(C(=O)NC(=N)N)cccc21 [Example 44, 1-Isopropyl-4-indoloylguanidine hydrochloride]",>10
3,"N=C(N)NC(=O)c1cc2ccccc2n1CCCN [Example 114, 1-(3-aminopropyl)-2-indoloylguanidine dihydrochloride]",1.0
4,"Cn1c(C(=O)N=C(N)N)cc2c(Cl)ccc(OCC(N)=O)c21 [Example 64, 7-Carbamoylmethoxy-4-chloro-1-methyl-2-indoloylguanidine hydrochloride]",0.01
5,"CCN(CC)CCCOc1ccc(C)c2cc(C(=O)N=C(N)N)n(C)c12 [Example 154, 7-(3-Diethylaminopropoxy)-1,4-dimethyl-2-indoloylguanidine dihydrochloride]",0.3
6,"Cn1c(C(=O)N=C(N)N)cc2c(Cl)ccc(Oc3ccc(N)cc3)c21 [Example 193, 7-(4-aminophenoxy)-4-chloro-1-methyl-2-indoloylguanidine hydrochloride]",0.003
7,"Cn1c(C(=O)NC(=N)N)cc2c(Br)cccc21 [Example 56, 4-Bromo-1-methyl-2-indoloylguanidine hydrochloride]",0.03
8,"N=C(N)NC(=O)c1cccc2c1ccn2Cc1ccccc1 [Example 45, 1-Benzyl-4-indoloylguanidine hydrochloride]",>10
9,"N=C(N)NC(=O)c1cc2ccccc2n1CCC(N)=O [Example 52, 1-(2-Carbamoylethyl)-2-indoloylguanidine hydrochloride]",1.0
10,"NC(N)=NC(=O)c1cc2ccccc2n1CCO [Example 108, 1-(2-hydroxyethyl)-2-indoloylguanidine hydrochloride]",>10
11,"Cn1c(C(=O)N=C(N)N)cc2ccc(OCCc3ccccc3)cc21 [Example 67, 1-Methyl-6-(2-phenylethoxy)-2-indoloylguanidine hydrochloride]",1.0
12,"N=C(N)NC(=O)c1cc2cc(Cl)ccc2[nH]1 [Example 86, 5-chloro-2-indoloylguanidine hydrochloride]",10
13,"Cn1c(C(=O)N=C(N)N)cc2cc(F)ccc21 [Example 30, 5-Fluoro-1-methyl-2-indoloylguanidine hydrochloride]",1.0
14,"Cn1c(C(=O)NC(=N)N)cc2cccc(OCC(=O)O)c21 [Example 136, 7-Carboxymethoxy-1-methyl-2-indoloylguanidine hydrochloride]",1.0
15,"CC(C)Oc1ccc(OCCCN)c2c1cc(C(=O)NC(=N)N)n2C [Example 176, 7-(3-Aminopropoxy)-4-isopropoxy-1-methyl-2-indoloylguanidine dihydrochloride]",0.1
16,"Cn1c(C(=O)N=C(N)N)cc2c(C(F)(F)F)cc(O)cc21 [Example 184, 6-Hydroxy-1-methyl-4-trifluoromethyl-2-indoloylguanidine hydrochloride]",0.003
17,"NC(N)=NC(=O)c1cc2ccccc2n1Cc1ccc2ccccc2c1 [Example 35, 1-(2-Naphthylmethyl)-2-indoloylguanidine hydrochloride]",1.0
18,"Cn1ccc2cc(C(=O)N=C(N)N)ccc21 [Example 2, 1-methyl-5-indoloylguanidine hydrochloride]",10

row,Compound,Inhibition of Na^+/H^+ Exchanger MEC [µM]
1,"Cn1c(C(=O)N=C(N)N)cc2ccccc21 [Example 1, 1-methyl-2-indoloylguanidine hydrochloride]",1.0
2,"Cn1c(C(=O)NC(=N)N)cc2ccc(O)cc21 [Example 94, 6-Hydroxy-1-methyl-2-indoloylguanidine hydrochloride]",1.0
3,"Cn1c(C(=O)N=C(N)N)cc2c(Cl)ccc(Oc3ccc(CN)cc3)c21 [Example 197, 7-[4-(aminomethyl)phenoxy]-4-chloro-1-methyl-2-indoloylguanidine dihydrochloride]",0.003
4,"Cc1ccc(OCCCN)c2c1cc(C(=O)NC(=N)N)n2C [Example 178, 7-(3-Aminopropoxy)-1,4-dimethyl-2-indoloylguanidine dihydrochloride]",0.1
5,"Cc1cccc2c1cc(C(=O)N=C(N)N)n2C [Example 9, 1,4-Dimethyl-2-indoloylguanidine hydrochloride]",0.1
6,"Cn1c(C(=O)NC(=N)N)cc2c(Cl)ccc(OCC(=O)O)c21 [Example 135, 7-carboxymethoxy-4-chloro-1-methyl-2-indoloylguanidine hydrochloride]",0.1
7,"Cc1ccc(OCCCN(C)C)c2c1cc(C(=O)N=C(N)N)n2C [Example 153, 1,4-Dimethyl-7-(3-dimethylaminopropoxy)-2-indoloylguanidine dihydrochloride]",0.3
8,"CC(C)n1ccc2ccc(C(=O)NC(=N)N)cc21 [Example 42, 1-Isopropyl-6-indoloylguanidine hydrochloride]",10
9,"CC(C)n1c(C(=O)NC(=N)N)cc2ccccc21 [Example 84, 1-isopropyl-2-indoloylguanidine hydrochloride]",1.0
10,"Cn1c(C(=O)N=C(N)N)cc2c(Cl)cc(Oc3cccc(N)c3)cc21 [Example 190, 6-(3-aminophenoxy)-4-chloro-1-methyl-2-indoloylguanidine hydrochloride]",0.01
11,"CC(=O)Nc1cccc2cc(C(=O)N=C(N)N)n(C)c12 [Example 99, 7-Acetamido-1-methyl-2-indoloylguanidine hydrochloride]",10
12,"NC(=O)CCn1c(C(=O)N=C(N)N)cc2c(Cl)cccc21 [Example 72, 1-(2-carbamoylethyl)-4-chloro-2-indoloylguanidine hydrochloride]",0.1
13,"Cn1c(C(=O)N=C(N)N)cc2c(C(F)(F)F)cc(OCCN3CCCC3)cc21 [Example 168, 1-Methyl-6-[2-(N-pyrrolidinyl)ethoxy]-4-trifluoromethyl-2-indoloylguanidine dihydrochloride]",0.03
14,"COc1ccc(Cn2c(C(=O)NC(=N)N)cc3ccccc32)cc1 [Example 39, 1-(4-Methoxybenzyl)-2-indoloylguanidine hydrochloride]",0.3
15,"Cn1c(C(=O)NC(=N)N)cc2cccc(OCCCN)c21 [Example 117, 7-(3-Aminopropoxy)-1-methyl-2-indoloylguanidine dihydrochloride]",0.3
16,"Cn1c(C(=O)N=C(N)N)cc2cccc(Cl)c21 [Example 8, 7-Chloro-1-methyl-2-indoloylguanidine hydrochloride]",0.3
17,"Cc1c(C(=O)NC(=N)N)[nH]c2ccccc12 [Example 111, 3-methyl-2-indoloylguanidine hydrochloride]",10
